Assay results reported in PubChem BioAssay (NCI).
Several values for one entry are separate records, joined by “and”; a condition that tells them apart may be missing. Identical values can stand only once.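 Cultured in 96-well plates, cells were exposed to test compound for 48 hours across five concentrations. Abbreviation: GI50, concentration required for 50% inhibition of growth. At the TGI there is no net growth.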

Test system: NCI-H322M lung
Test: inhibition of tumour cell growth, NCI panel, 48 h

Row | Structure (SMILES) | TGI | GI50
1 | O=C(/C=C/c1ccco1)c1cccc(C(=O)/C=C/c2ccco2)n1 | > 100 µM | –
2 | CCCCCCOP(=O)(OCCCCCC)OC(C(=O)OC)C(F)(F)F (stereo unspecified) | > 100 µM | –
3 | COc1ccccc1/C=C\C(=O)c1ccccc1 | 32 µM | 17.4 µM
4 | OC(c1cc(-c2ccccc2)nc2c1ccc1ccccc12)C1CCCCN1 (stereo unspecified) | 2.94 µM | –
5 | C=C(CNCCc1ccc(O)cc1)[C@@H]1CC[C@]2(CO)CC[C@]3(C)[C@H](CC[C@@H]4[C@@]5(C)CCC(N)C(C)(C)[C@@H]5CC[C@]43C)[C@@H]12 (stereo partly specified) | 3.02 µM | 1.61 µM
6 | O=C(CCN1CCCC1)Nc1ccc2c(Nc3ccccc3)c3ccccc3nc2c1 | 2.79 µM | 0.72 µM
7 | CC1(C)CC(=O)c2c(oc3cc(O)c(O)cc23)C1 | > 100 µM | –
8 | COc1ccc(-c2nc3c(c(=O)n2C(C)=O)C(c2ccc(Cl)cc2)c2sc4c(Cl)cccc4c2O3)cc1 (stereo unspecified) | 3.31 µM | 0.717 µM
9 | COc1ccc(CC2=NCCc3cc(OC)c(OC)cc32)cc1Br | > 100 µM | –
10 | COc1ccc(-c2c3ccccc3c(-c3ccc(OCCCCCBr)cc3)c3ccccc23)cc1 | > 100 µM | –
11 | Cc1n(Cc2ccc3ccccc3c2)c(Cl)c(Cl)[n+]1Cc1ccc2ccccc2c1 | 7.65 µM | 2.47 µM
12 | Cc1ccc(/C=C2\CNC/C(=C\c3ccc(C)cc3)C2=O)cc1 | 3.41 µM and 14.4 µM | 1.62 µM
13 | CC[C@@]1(O)C(=O)OCc2c1cc1n(c2=O)Cc2cc3c(N)cccc3nc2-1 | 9.09 µM | –
14 | O=C1CSc2nnc(CCCCCCCCc3nnc4n3NC(=O)CS4)n2N1 | > 100 µM | –
15 | COc1ccc(/C=C/C(=O)C(C)(C)Br)cc1 | 61 µM | –
16 | Cc1cc(S(=O)(=O)O)c(NC(=O)c2oc3cc(O)ccc3c(=O)c2C)cc1Cl | > 100 µM | –
17 | CC(C)(C)[Si](C)(C)OCC1OC(n2cnc3c(N)ncnc32)C(O)C1O (stereo unspecified) | > 100 µM | –
18 | O=S(=O)(O)C1CCC(O)C2[N-]CCCC21.O=S(=O)(O)C1CCC(O)C2[N-]CCCC21.[Zn+2] (stereo unspecified) | > 100 µM | –
19 | Cc1ccccc1NC(=O)C(=O)CC(=O)c1ccc([N+](=O)[O-])cc1 | > 100 µM | –

Row | Structure (SMILES) | TGI | GI50
20 | COC(=O)C(NC(=O)CSc1nnc(COc2ccc(Cl)cc2)n1-c1ccccc1)C(C)C (stereo unspecified) | 60.6 µM | –
21 | COc1ccc(C2ONC3=NCCN32)cc1 (stereo unspecified) | > 100 µM | > 100 µM
22 | Cc1cc([N+](=O)[O-])c(S(=O)(=O)c2ccccc2)c([N+](=O)[O-])c1 | 28.3 µM | –
23 | O=S1(=O)CCN(c2ccccc2CC(c2c[nH]c3ccccc23)c2c[nH]c3ccccc23)CC1 | > 100 µM | –
24 | COc1ccc2[nH]c(-c3ccccc3)cc2c1 | > 100 µM | > 100 µM
25 | CCOC1=C2NC(Cc3ccc(F)cc3)=NC2C(=O)c2ccccc21 (stereo unspecified) | > 100 µM | –
26 | CCOCNc1ccc(N2C(=O)/C(=C/c3ccc(N(CC)CC)cc3)N=C2c2ccccc2)cc1 | > 100 µM | > 100 µM
27 | CCCCCCCCCC(=O)Oc1cccc2onc(C)c12 | > 100 µM | –
28 | CC(=O)c1ccc(NC(=O)CSc2nc(C)nc3c2sc(=S)n3-c2ccccc2)cc1 | > 10 µM | –
29 | O=[N+]([O-])c1ccc(NS(=O)(=O)C(F)(F)F)cc1 | > 100 µM | –
30 | NC(=S)N/N=C\CC(O)(C(F)(F)F)C(F)(F)F | > 10 µM | –
31 | O=c1c2c(nc3n1CCC3)sc1c(O)c(Br)ccc12 | 59.1 µM | –
32 | COc1ccc(-c2nc(-c3cnccn3)n(C3OC(CO)C(O)C(O)C3O)n2)cc1 (stereo unspecified) | > 100 µM | –
33 | CN(C)C(=O)SC1=C(c2c(Cl)cccc2Cl)C(=O)c2ccccc21 | 32.9 µM | 16.5 µM
34 | O=C(Cc1ccc(/C=C/C(=O)c2ncc[nH]2)cc1)Nc1ccc(C(F)(F)F)cc1 | 9.41 µM | 4.68 µM
35 | COc1cc2nnn3c4ncccc4c(N=O)c3c2cc1OC | 67.8 µM | 20.7 µM
36 | Nc1c(N=Nc2ccc(-c3ccc(N=Nc4c(O)ccc5cc(S(=O)(=O)O)cc(S(=O)(=O)O)c45)cc3)cc2)c(S(=O)(=O)O)cc2cc(S(=O)(=O)O)c(N=Nc3ccccc3)c(O)c12 | > 100 µM | –
37 | COc1ccc(/C=C(/C(=O)n2cnnn2)c2cc(OC)c(OC)c(OC)c2)cc1 | > 100 µM | 8.31 µM
38 | COc1cc2cc(C(=O)N3CC(CCl)c4c3cc([N+](C)(C)Cc3ccc([N+](=O)[O-])n3C)c3ccccc43)[nH]c2c(OC)c1OC (stereo unspecified) | 7.09 µM | –
